The record followed here is the supplement of paper PMC8512760.

This is one part of the list. Many values rest on one well or one pass, so single values are uncertain.
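Note: stably firefly luciferase-GFP labeled cells in 96-well plates, viability read as luciferase photon flux after d-luciferin addition, treated wells normalized to vehicle wells, single-dose high-throughput screen.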

For the assay, the system named is HCC-1143. Put plainly: cell viability relative to vehicle (% of vehicle); basal-like triple-negative breast cancer lines; higher = less cytotoxic. The settings on record: 10 µM; 72 h.
In turn, `CC1=NS(=O)(=O)c2cc(Cl)ccc2N1` [Diazoxide] showed a cell viability of 79.3. In turn, `CCOC(=O)c1ccc(N)cc1` [Benzocaine] came in with a cell viability of 131. The molecule `O=C(O)Cc1cc(I)c(Oc2ccc(O)c(I)c2)c(I)c1` [Tiratricol] had a cell viability of 69.4. In turn, `CC(=O)NC(CS)C(=O)O` (stereo not given) [Acetylcysteine] had a cell viability of 77.3. For `Cn1c(=O)cc(N2CCCC(N)C2)n(Cc2cc(F)ccc2C#N)c1=O` (stereo not given) [Trelagliptin], the cell viability came to 107. In turn, `CC12CCC(O)CC1=CCC1C2CCC2(C)C(n3cnc4ccccc43)=CCC12` (stereo not given) had a cell viability of 73.9.

For the molecule `CNC(=O)C(NC(=O)C(CC(C)C)C(O)C(=O)NO)C(C)(C)C` (stereo not given) [Marimastat], the cell viability was 74.8. The molecule `CC(C(=O)O)c1cccc(Oc2ccccc2)c1` (stereo not given) [Fenoprofen calcium hydrate] had a cell viability of 107. Then `CS(=O)(=O)CCNCc1ccc(-c2ccc3ncnc(Nc4ccc(OCc5cccc(F)c5)c(Cl)c4)c3c2)o1.Cc1ccc(S(=O)(=O)O)cc1.Cc1ccc(S(=O)(=O)O)cc1` [Lapatinib Ditosylate], with 98.6; and `CCCN1CCCCC1C(=O)Nc1c(C)cccc1C.Cl` (stereo not given) [Ropivacaine HCl], with 73.1.

As for `C[N+](C)(C)CCO.[Cl-]` [Choline Chloride], the cell viability came to 69.1. As for `C[N+](C)(C)CC(O)CC(=O)O.[Cl-]` (racemic) [DL-Carnitine HCl], the cell viability is 87.6. For the molecule `C=C(c1ccc(C(=O)O)cc1)c1cc2c(cc1C)C(C)(C)CCC2(C)C` [Bexarotene], the cell viability was 95.

The molecule `Cl.Cl.NC(=NCCCCCCN=C(N)N=C(N)Nc1ccc(Cl)cc1)N=C(N)Nc1ccc(Cl)cc1` [Chlorhexidine HCl] came in with a cell viability of 52.3. Regarding `CCC1=CC2CN(C1)Cc1c([nH]c3ccccc13)C(C(=O)OC)(c1cc3c(cc1OC)N(C)C1C(O)(C(=O)OC)C(OC(C)=O)C4(CC)C=CCN5CCC31C54)C2.O=C(O)C(O)C(O)C(=O)O.O=C(O)C(O)C(O)C(=O)O` (stereo not given) [Vinorelbine ditartrate], the cell viability is 61.2. Molecule `CC(=O)c1c(C)c2cnc(Nc3ccc(N4CCNCC4)cn3)nc2n(C2CCCC2)c1=O.Cl` showed a cell viability of 106. Regarding `Cl.O=C1Cc2cc(CCN3CCN(c4nsc5ccccc45)CC3)c(Cl)cc2N1` [Ziprasidone HCl], the cell viability was determined as 103. `O=C(CCCCCCNC(=O)c1cnc(N(c2ccccc2)c2ccccc2)nc1)NO` [Rocilinostat (ACY-1215)] returned a cell viability of 67.2. `Cc1ccccc1N1C(=O)c2cc(S(N)(=O)=O)c(Cl)cc2NC1C` (stereo not given) [Metolazone] had a cell viability of 125. Consider `COC(=O)C1=C(C)NC(C)=C(C(=O)OCCN(C)Cc2ccccc2)C1c1cccc([N+](=O)[O-])c1.Cl` (stereo not given) [Nicardipine HCl], for which the cell viability turned out to be 129. The same measure for `CC1CC2C3CCC4=CC(=O)C=CC4(C)C3(Cl)C(O)CC2(C)C1(OC(=O)c1ccco1)C(=O)CCl` (stereo not given) [Mometasone furoate]: 77.1; for `CO[C@H]1O[C@@H]2O[C@@]3(C)CC[C@H]4[C@H](C)CC[C@@H]([C@H]1C)[C@@]24OO3` [Artemether (SM-224)]: 71.1; for `O=C([O-])CCCc1ccccc1.[Na+]` [Sodium Phenylbutyrate]: 96.1. The same measure for `Cn1c(=O)cc(N2CCCC(N)C2)n(Cc2ccccc2C#N)c1=O` (stereo not given) [Alogliptin (SYR-322)]: 99.4; for `C[C@@H]1C[C@H]2[C@H]3CCC4=CC(=O)C=C[C@]4(C)[C@@]3(F)[C@@H](O)C[C@]2(C)[C@@]1(O)C(=O)CO` [Dexamethasone (DHAP)]: 87.

As for `COc1cc2ncnc(Nc3ccc(F)c(Cl)c3)c2cc1OCCCN1CCOCC1` [Gefitinib (ZD1839)], the cell viability was 87.8. `O=C(C=Cc1cccc(S(=O)(=O)Nc2ccccc2)c1)NO` [Belinostat (PXD101)] showed a cell viability of 43.1. As for `Nc1ccc(C(=O)[O-])c(O)c1.O.O.[Na+]` [Sodium 4-Aminosalicylate], the cell viability was 80.7. The molecule `CCN(CC)CCOC(=O)C(c1ccccc1)c1ccccc1.Cl` [Adiphenine HCl] returned a cell viability of 72.4.

Turning to `COc1ccccc1Oc1c(NS(=O)(=O)c2ccc(C(C)(C)C)cc2)nc(-c2ncccn2)nc1OCCO.O` [Bosentan Hydrate], the cell viability came out at 76.4.

As to `Nc1ccc(O)c(C(=O)O)c1` [Mesalamine], the cell viability worked out at 117. The same measure for `CCOc1cc(C(CS(C)(=O)=O)N2C(=O)c3cccc(NC(C)=O)c3C2=O)ccc1OC` (stereo not given): 98.3; for `Cl.NC1=NCC2c3ccccc3Cc3ccccc3N12` (stereo not given) [Epinastine HCl]: 75.8; for `CCCCCCOC(=O)N=C(N)c1ccc(NCc2nc3cc(C(=O)N(CCC(=O)OCC)c4ccccn4)ccc3n2C)cc1.CS(=O)(=O)O` [Dabigatran etexilate mesylate]: 94.8.

As to `CCCCC(=O)OC1CCC2C3CCc4cc(O)ccc4C3CCC12C` (stereo not given) [Estradiol valerate], the cell viability was 77.1. The same measure for `O=C(O)CO.[NH2-].[NH2-].[Pt+2]` [Nedaplatin]: 56.2. `C=CC(=O)Nc1cccc(Nc2nc(Nc3ccc(N4CCN(C(C)=O)CC4)cc3OC)ncc2C(F)(F)F)c1`: the cell viability is 22.7. Then `C=C1c2cccc(O)c2C(O)=C2C(=O)C3(O)C(O)=C(C(N)=O)C(=O)C(N(C)C)C3C(O)C12.Cl` (stereo not given) [Methacycline HCl], with 121; and `CC(=O)OC1CCC2(C)C(=CCC3C2CCC2(C)C(c4cccnc4)=CCC32)C1` (stereo not given) [Abiraterone acetate], with 79.7.

Molecule `Cc1c(O)cccc1C(=O)NC(CSc1ccccc1)C(O)CN1CC2CCCCC2CC1C(=O)NC(C)(C)C` (stereo not given) [Nelfinavir] had a cell viability of 77.3.
